# Reference: ChEMBL document CHEMBL4888484, “Replenishing the malaria drug discovery pipeline: Screening and hit evaluation of the MMV Hit Generation Library 1 (HGL1) against asexual blood stage Plasmodium falciparum ,using a nano luciferase reporter read-out” (2022)
# Among all 150,000 compounds or so, about 540 (0.36%) showed an effect of 50% or more. Some of the results follow.
# Test system: Plasmodium falciparum
# Assay: Primary screen in NF54 nanoGlo assay, in single point, at 2uM, 72h; a lower Z score goes with more inhibition
# Format: functional, Erythrocyte
# Conditions: timepoint 72 hour
SMILES,% Inhibition,Z score
Cc1csc(NC(=O)[C@H]2CC2(F)F)n1,-1%,0.18
O=C(C[C@H]1COc2ccc(Cl)cc2N1Cc1ccc(F)cc1)NC1CCCC1,-15%,2.17
O=C(NC[C@H]1CCC[C@@H]1O)c1cc(F)c[nH]1,7%,-0.56
Cc1c(C#N)c(NC(=O)CN2CCCCC2)n(Cc2ccco2)c1C,-3%,0.3
CN(C)Cc1nc(C(=O)NCc2cccnc2N2CCN(C)CC2)cs1,-8%,1.56
Cc1ccc(-c2ocnc2C(=O)Nc2ccc(NC(=O)c3ccccc3)nc2)cc1,-8%,0.85
OCCOc1ccccc1CN[C@H]1CCc2cc(Cl)ccc21,-14%,1.2
O=S(=O)(CC[C@H]1CCCO1)N1CCc2c(F)cc(F)cc21,0%,0.01
CC(C)O[C@H]1C[C@@H](NC(=O)c2ccc(C(F)(F)F)c(=O)[nH]2)C1,13%,-1.51
CC[C@]1(CO)CCCN(c2nnc(C(C)C)s2)C1,5%,-0.5
COc1ccccc1C(=O)NC(C(=O)NCC1CN(C)CCO1)C(C)C (centres undefined),4%,-0.64
COc1cccc(-n2c(C)nn(Cc3ccc(Cl)cc3)c2=O)c1,0%,0.04
Cn1ccnc(NCc2ccccc2CN2CCCCCC2)c1=O,-13%,2.22
O=C(Nc1cccc(C2CC2)n1)N1CC(S(=O)(=O)N2CCNCC2)C1,7%,-1.33
NC1(CNC(=O)c2ccccc2Cl)CCCCCC1,3%,-0.57
NC(=O)CCCC(=O)NCC(=O)Nc1ccccc1,8%,-0.82
CN(C1CCCC1)C(C)(C)C(=O)NCc1csc(=O)[nH]1,-6%,0.74
Cn1ncc2c(=O)[nH]c(CN3CCCCCCC3)nc21,2%,-0.21
CN(Cc1ccccc1)Cn1c(=S)sc2ccc(Cl)cc21,-10%,1.95

SMILES,% Inhibition,Z score
CCC#CCN1CCC[C@H](CNC(=O)c2oc(C)nc2C)C1,-10%,1.42
CCO[C@H]1C[C@H](NC(=O)Nc2ccncc2Br)C1,-9%,1.38
CCN(CC)C(=O)N[C@@H](C)COc1ccc(F)cc1F,-1%,0.12
COc1ccc(N2CCN(C(=O)Cn3c(C)cc(C)c3-c3nc(C(C)C)no3)CC2)cc1,-10%,1.32
CN(C)C(=O)CNCc1cnc(-c2ccco2)nc1,-26%,2.29
O=C(C[C@H]1COc2cc(F)ccc2N1Cc1ccccc1)NCCCN1CCCCC1,-7%,1.05
CC(C)(c1ccccc1)c1nc([C@@H]2COCCN2)no1,-18%,2.16
COc1ccc(NC(=O)N2CC[C@H]3COC(=O)N3c3cc(F)ccc3C2)cc1,7%,-0.89
Cn1nc(CN(Cc2ccco2)C(=O)N2CCOCC2)c2c1CCC2,5%,-0.83
O=C1N(CCc2c[nH]c3c(Cl)cccc23)C(=O)C23CC(CN12)C3,-1%,0.1
OC(CC(O)c1ccccc1)CN1CCOCC1 (centres undefined),-2%,0.23
CC(C)c1noc([C@H](C)NS(=O)(=O)N2CCCC2)n1,-19%,2.01
Cc1cccc(CNC(=O)CN(C)C)c1Br,-4%,0.84
COc1ccnc(NCc2[nH]nc(C)c2C)n1,-2%,0.26
OC1(C2CC2)CN(c2nc3ccccc3s2)C1,2%,-0.24
Nc1nc(N2CCCCCC2)nc2ccccc12,3%,-0.37
O=C(Nc1ccc(C(F)(F)F)cc1)C1=NCCN1,-9%,1.26
CC1(CNC(=O)[C@@H]2NCCOc3ccccc32)CC(F)(F)C1,-8%,1.62
CC(C)CC1(CNC(=O)c2cnc(-c3ncccn3)s2)CC1,-8%,1.21

SMILES,% Inhibition,Z score
O=C(CN1CCN(S(=O)(=O)c2ccc(Br)cc2)CC1)Nc1ccc2c(c1)OCCO2,6%,-0.75
Cc1noc(C)c1CCOc1ccc(O[C@H]2CCCCNC2=O)cc1,2%,-0.24
c1ccc2nc(N3CCC4(CCCN4Cc4ccc(-c5cc[nH]n5)o4)CC3)cnc2c1,-10%,1.34
CCCn1cc(N[C@@H](C)C(=O)N(C)C(C)C)cn1,-7%,1.02
CCn1cnnc1CC1CCN(C(=O)CCS(=O)(=O)c2ccc3c(c2)CCN3C(C)=O)CC1,-5%,0.95
Cc1cccc(CN2CCC[C@H]2C(=O)NC2CC2)c1C,3%,-0.4
CC[C@H](NC(=O)Nc1cccc(C(=O)N(C)C)c1C)c1cc(C)ccn1,-1%,0.17
Cc1cc(CC(=O)Nc2ccc(Cl)cc2O)n[nH]1,-13%,2.25
c1ccc(CN2CCC(NC3(c4ccccc4)CCC3)CC2)cc1,-8%,1.06
CN(C(=O)CCC1CCOC1)C1CCCN(Cc2ccccc2)C1 (centres undefined),21%,-2.61
CC(C)C[C@](C)(NC(=O)c1cccc(-c2ccoc2)c1)C(N)=O,0%,0.04
Cc1ccccc1[C@H]1CCc2nc(C(=O)N3CCCCC3)cn2C1,-20%,1.93
COc1ccc(CCOc2cc(C)n(C)n2)cc1,-27%,2.91
CC(=O)N1CCC[C@H]1C(=O)NC(C)Cc1ccccc1Cl (some centres undefined),7%,-0.98
CC(=O)N1CC[C@@H]2CN(C(=O)c3ccc(C)cc3Cl)C[C@@H]2CC1,-4%,0.53
Cc1cc(N(C)CC(=O)N2CCCC2)n2ncnc2n1,-9%,0.85
CN(CCO)Cc1cc2n(n1)CCN(c1ccc(C(F)(F)F)cn1)C2,10%,-1.38
COc1cccc(N2CCN(c3cc4n[nH]c(=O)n4cn3)CC2)c1,36%,-0.7
Cc1noc(-c2ccc(OC(F)(F)F)cc2)c1C(=O)N[C@H]1CCC[C@@H]1OCc1ccccc1,-5%,0.55
